About 14,000 (4.5%) of roughly 310,000 compounds showed an effect of 50% or more. The effect is printed as a negative number. This is one part of the list.
molecular target: human ether-à-go-go-related gene (hERG) potassium channel (human, UniProt Q12809); assay: primary screen, population patch clamp on CHO cells stably expressing hERG
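Further: peak tail current of the secondary pulse compared with the same well before compound.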

Sequence of human ether-à-go-go-related gene (hERG) potassium channel (Q12809 whole entry, looked up): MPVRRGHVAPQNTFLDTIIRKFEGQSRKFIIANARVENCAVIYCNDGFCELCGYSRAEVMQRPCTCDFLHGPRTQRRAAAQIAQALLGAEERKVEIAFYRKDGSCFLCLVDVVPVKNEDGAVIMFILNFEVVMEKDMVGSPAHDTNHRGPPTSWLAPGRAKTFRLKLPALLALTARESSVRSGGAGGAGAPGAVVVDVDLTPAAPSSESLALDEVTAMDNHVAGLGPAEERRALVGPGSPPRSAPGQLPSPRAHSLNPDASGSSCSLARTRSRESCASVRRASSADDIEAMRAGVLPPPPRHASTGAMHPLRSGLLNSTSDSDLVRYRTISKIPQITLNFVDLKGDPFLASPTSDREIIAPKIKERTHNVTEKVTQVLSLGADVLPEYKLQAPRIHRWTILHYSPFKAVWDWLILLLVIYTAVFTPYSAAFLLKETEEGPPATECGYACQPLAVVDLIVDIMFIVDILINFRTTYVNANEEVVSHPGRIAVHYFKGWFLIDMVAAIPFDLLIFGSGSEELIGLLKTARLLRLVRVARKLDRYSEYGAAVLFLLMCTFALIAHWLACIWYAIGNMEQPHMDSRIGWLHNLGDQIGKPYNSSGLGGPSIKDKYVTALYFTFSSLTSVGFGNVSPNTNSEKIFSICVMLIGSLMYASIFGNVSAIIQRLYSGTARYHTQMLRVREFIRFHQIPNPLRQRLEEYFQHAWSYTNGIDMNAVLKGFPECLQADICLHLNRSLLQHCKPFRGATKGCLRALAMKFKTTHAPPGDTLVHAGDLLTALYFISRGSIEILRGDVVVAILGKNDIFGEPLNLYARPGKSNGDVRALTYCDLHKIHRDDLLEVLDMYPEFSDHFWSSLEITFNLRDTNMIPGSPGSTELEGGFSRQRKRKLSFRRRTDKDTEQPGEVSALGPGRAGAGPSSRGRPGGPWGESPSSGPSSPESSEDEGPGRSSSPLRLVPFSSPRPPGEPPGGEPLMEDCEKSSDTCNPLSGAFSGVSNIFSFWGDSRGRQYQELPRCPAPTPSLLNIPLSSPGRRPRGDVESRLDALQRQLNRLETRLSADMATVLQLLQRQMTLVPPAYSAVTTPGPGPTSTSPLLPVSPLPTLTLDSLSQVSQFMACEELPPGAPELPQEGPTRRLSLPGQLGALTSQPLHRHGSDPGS

Compound	hERG current change (%, negative = inhibition) at 10uM [%]
CN1C(=O)N(C)C(c2cccc([N+](=O)[O-])c2)C2=C1CCCC2=O (stereo not shown)	-0.563
O=C(/C(=C(\[O-])c1ccccc1)[n+]1ccc2ccccc2c1)c1ccc([N+](=O)[O-])cc1	6.9
CCOc1cc(NC(=S)N2CCC(C(N)=O)CC2)c(C(=O)OC)cc1OCC	-12.7
CCOC(=O)c1ccc(NS(=O)(=O)c2cc(-c3nnnn3C(C)C)ccc2OC)cc1	-19.2
CCOc1ccc(NS(=O)(=O)c2csc(C(N)=O)c2)cc1	15.4
Cc1ccccc1NC(=O)CN1C(=O)c2cccnc2Oc2ccc(Cl)cc21	3.73
CCc1sc(C(=O)N2CCc3cc(OC)c(OC)cc3C2CC(=O)O)cc1C (stereo not shown)	24.8
Cc1ccc(NC(=O)CN2CCN(c3ccccn3)CC2)cc1S(=O)(=O)N(C)C	-22.1
COc1ccc(NC2CCCN(C(=O)CCC(=O)c3ccc(F)cc3)C2)cc1 (stereo not shown)	-34.2
C=CCn1c(O)c(C(CC)=Nc2ccc(NC(C)=O)cc2)c(=O)[nH]c1=O	0.499
COc1ccc(C(=O)N2CCOC2CNC(=O)C(=O)NCc2ccc(Cl)cc2)cc1 (stereo not shown)	-8.54
O=C(N/N=C\c1ccccc1)c1ccccc1-n1cccc1	3.38
CCOc1ccc(/C=C/C(=O)Nc2ccccc2C(F)(F)F)cc1	7.68
Cl.O=C1C2CCCN2C(=O)N1CCCN1CCN(c2cccc(Br)c2)CC1 (stereo not shown)	-9.07
Cc1cc(C(=O)NCc2ccc3c(c2)OCO3)ccc1[N+](=O)[O-]	0.238
O=C(O)C1C2C=CC(C2)C1C(=O)Nc1ccc(C(=O)N2CCCCC2)c(Cl)c1 (stereo not shown)	4.45
O=C(COC(=O)c1cc(S(=O)(=O)N2CCCC2)ccc1O)Nc1ccc(S(=O)(=O)N2CCOCC2)cc1	23.6
COC(=O)C1=C(C(=O)OC)[C@@H]2N(C)c3ccc(OC)cc3[C@@]23C[C@@H](C(=O)OC)N(C(=O)NC2CCCCC2)C3=N1	-26
O=C1Cc2cc(S(=O)(=O)NCc3ccccc3Cl)cc3c2N1CCC3	6.14
CC(C)CN(C(=O)CN1CC=C(c2ccccc2)CC1)c1c(N)n(CC(C)C)c(=O)[nH]c1=O	-0.684
Cc1nc(C)c(C(=O)N/N=C/c2cn(C)c3ccccc23)s1	0.111
CC(=O)OCC(=O)[C@@]1(O)CC[C@H]2[C@@H]3CCC4=CC(=O)C=C[C@]4(C)[C@H]3[C@@H](O)C[C@@]21C	10.6

Compound	hERG current change (%, negative = inhibition) at 10uM [%]
CCCCc1ccc(NC(=O)CN2C(=O)C3CCCCC3C2=O)cc1 (stereo not shown)	-20.7
COc1cc(SC)ccc1C(=O)OCC(=O)NC1CC1	7.53
Cc1ccc([N+](=O)[O-])cc1NC(=O)c1cccnc1	14.5
CN1CCN(S(=O)(=O)c2ccc(Sc3nnc(-c4cccs4)n3-c3ccccc3)nc2)CC1	-2.12
COc1ccc(-c2cc(C(=O)NCC3CCCO3)c3cc(C)ccc3n2)cc1 (stereo not shown)	-3.03
CCOC(=O)C1=C(C)N=C2SC(C)C(=O)N2C1/C=C/c1ccccc1OC (stereo not shown)	-0.644
Cn1c(C(=O)NCCN2CCN(Cc3ccccc3)CC2)cc2c(=O)n(C)c3ccccc3c21	-25.5
Cc1cc(CNC(=O)Cc2ccccc2)c2ccccc2n1	-6.64
CCCN(CCC)S(=O)(=O)c1ccc(C(=O)NCc2ccco2)cc1	3.79
CC/C(=C(/CC)c1ccc(O)cc1)c1ccc(O)cc1	2.61
Cc1cccc(N2C(=O)NC(=O)C3(Cc4cc(C)ccc4N(C)C3)C2=O)c1 (stereo not shown)	12.1
CC[N+](CC)(CC)C/C(N)=N/O.[Cl-]	11.8
Cc1ccc(CNC(=O)c2ccccc2CCc2ccccc2)cc1	-8.34
Cc1ccc(N2C(=O)C(O)(C(F)(F)F)C3=C2CC(C)(C)CC3=O)cc1 (stereo not shown)	6.89
CC1(C)SC2c3ccccc3C(=O)N2[C@@H]1C(=O)O (stereo partly shown)	16.4
CCCCCCNC(=O)C(C#N)c1nc2ccccc2nc1N1CCOCC1 (stereo not shown)	4.93
Cc1cccc(NCc2cccc3ccccc23)n1	7.85
O=C(NCc1ccccc1)c1ccc(F)c(F)c1	5.53
O=C(Nc1ccc2[nH]ccc2c1)c1ccccc1	24.3
CC(C)c1ccccc1NC(=O)CNCCOc1ccccc1F.O=C(O)C(=O)O	-1.11
COc1cc(C(=O)Nc2ccccc2C2COC(=O)C2=N)cc(OC)c1OC (stereo not shown)	-5.99
CN(C)c1nc(Oc2ccc(/C=N/O)cc2)nc(N(C)C)n1	-11.4

Compound	hERG current change (%, negative = inhibition) at 10uM [%]
CC12CS(=O)(=O)CC1SC(=S)N2Cc1ccccc1 (stereo not shown)	-15
CCC(C)(C)NC(=O)C(c1cccc(OC)c1OC)N(Cc1ccc(OC)cc1)C(=O)CCC(=O)Nc1cc(C)on1 (stereo not shown)	7.48
CCOCc1nnc(NC(=O)CSc2ccccc2)s1	-8.58
COC(=O)c1c(C)oc(C)c1S(=O)(=O)NCc1ccc(Cl)cc1	-4.74
COc1ccc(CN(C)C(=O)c2ccc(OCC(=O)Nc3cccc(C(F)(F)F)c3)c(OC)c2)c(OC)c1	-1.27
CSc1nnc(C)c(=O)n1COC(=O)c1cc(Cl)ccc1[N+](=O)[O-]	-4.92
COc1ccc(CNC(=O)CC(C)CC2=NS(=O)(=O)c3ccccc3N2)cc1 (stereo not shown)	13.5
COC(=O)c1scc(C)c1NC(=O)CSc1ccc(Cl)cc1	-7.73
O=c1oc(-c2ccccc2NS(=O)(=O)c2ccccc2)nc2ccccc12	5.12
CCOC(=O)c1cc(NC(=O)c2cc(C)on2)cc(C(=O)OCC)c1	4.18
COC(=O)/C(=C/c1cccc([N+](=O)[O-])c1)NC(=O)c1ccc(OC)cc1	-11.5
Cc1nc(NC(=O)c2ccccc2)sc1-c1csc(Nc2ccc(Cl)cc2)n1	14.6
Cc1ccc(CC2CC(=O)N(CCc3ccc4c(c3)OCO4)C2=O)cc1 (stereo not shown)	3.17
Cc1ccc(S(=O)(=O)N2CCN(S(=O)(=O)c3c(C)n[nH]c3C)CC2)cc1C	13.2
Cc1ccc(-c2nnc(SCc3ccccc3F)o2)cc1	-11.9
COc1ccc(OC)c(/C=C2\Oc3cc(OCC(=O)N4CC(O)C[C@H]4C(=O)O)ccc3C2=O)c1 (stereo partly shown)	4.97
CC(CCc1ccco1)NC(=O)CSc1cc(=O)n(C)c2ccccc12 (stereo not shown)	-32
O=[N+]([O-])c1cc(Cl)cc(/C=N/Nc2nc3ccccc3s2)c1O	8.39
Cc1[nH]c(=O)c(C(=O)c2ccccc2O)cc1C(=O)O	19.8
CCC1CN(C(=O)N2CCC(C(=O)NCc3ccc(F)cc3)CC2)c2ccccc2O1 (stereo not shown)	-37.5
O=C(NCCCO)/C(=C/c1ccc(-c2cccc([N+](=O)[O-])c2)o1)NC(=O)c1ccccc1	-31.5
Cc1cc(C)cc(NC(=O)CN2CCC(NC(=O)Cc3ccccc3)CC2)c1	-25.4

Compound	hERG current change (%, negative = inhibition) at 10uM [%]
Cc1cc(C)nc(N2CCC(C(=O)Nc3ccc(Oc4ccccc4)cc3)CC2)n1	11.2
Cc1nnc(NC(=O)CC23CC4CC(CC(C4)C2)C3)s1	7.75
CCc1noc(C)c1C(=O)N(C)CC(=O)Nc1ccc(Br)cc1C	1.66
CCc1nc(NCC(C)C)c(C#N)c2c1COC(C)(C)C2	9.05
C/C(=N/NC(=O)CNS(=O)(=O)c1ccccc1)c1ccc(Br)cc1	4.79
Cn1c(CNS(=O)(=O)c2ccc(F)cc2)n[nH]c1=S	22.3
Cc1ccccc1S(=O)(=O)N1CCN(C)CC1	13.5
CC(C)(C)NC(=O)CN(C(=O)CS(=O)CC(=O)Nc1ccc(F)cc1)c1ccccc1F (stereo not shown)	3.16
COc1ccc(OC)c(NC(=O)CSc2nnc(-c3ccco3)o2)c1	-15.7
Cc1cccc(OCC(=O)NC(=S)Nc2ccc(S(=O)(=O)NC3CCCCC3)cc2)c1	12.3
O=C(/C=C/Nc1ccc(F)c(F)c1)c1ccc(Br)cc1	-36
COc1ccc(C2C(C(=O)c3ccco3)=C(O)C(=O)N2CCCn2ccnc2)c(OC)c1 (stereo not shown)	18.2
CC(=O)c1cc(-c2ccccc2)n(CC(=O)NC2CCCC2)c1C	-3.17
O=C(Cn1c(=O)oc2cc(S(=O)(=O)N3CCCC3)ccc21)N1CCCC1	4.56
Cc1cc(C)c2c(=O)[nH]c(SCC(=O)c3ccc(C(C)C)cc3)nc2n1	6.4
N#Cc1c(N)c(C#N)c(-c2ccc3c(c2)OCO3)c2c1CCCC2	5.73
CCCCNC(=O)CSc1nnc(Cc2ccccc2)n1CC1CCCO1 (stereo not shown)	11
CCC(C)NCCOCCSc1ccc(Cl)cc1.O=C(O)C(=O)O (stereo not shown)	-46.9
Nn1cc(-c2ccccc2)nc1SCC(=O)NC1CCS(=O)(=O)C1 (stereo not shown)	6.53
